Test results reported in PMC8346517.
Results are given in words; binding and its absence hold for the method and conditions named. For part of these data: Binding seen in cells or lysates may run through a third protein. Some results given as binding are weak or reduced against the parent protein; the word gives no strength. Where a sequence is shown, tags or fusion partners need not be part of it. Each block holds one binder with its values, some of them ahead of it.

By UniProt entry, the sequences of proteins in these tests, tags left out. Where a name states a change or a piece, a line headed by the entry shows the natural chain unless it says otherwise.
UniProt P17839: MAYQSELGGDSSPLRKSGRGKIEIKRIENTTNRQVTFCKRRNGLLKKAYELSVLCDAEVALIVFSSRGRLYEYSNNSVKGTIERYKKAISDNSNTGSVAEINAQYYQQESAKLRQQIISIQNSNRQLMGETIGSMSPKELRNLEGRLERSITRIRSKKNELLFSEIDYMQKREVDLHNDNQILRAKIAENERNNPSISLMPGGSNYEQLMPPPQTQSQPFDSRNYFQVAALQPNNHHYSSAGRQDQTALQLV
UniProt P35631: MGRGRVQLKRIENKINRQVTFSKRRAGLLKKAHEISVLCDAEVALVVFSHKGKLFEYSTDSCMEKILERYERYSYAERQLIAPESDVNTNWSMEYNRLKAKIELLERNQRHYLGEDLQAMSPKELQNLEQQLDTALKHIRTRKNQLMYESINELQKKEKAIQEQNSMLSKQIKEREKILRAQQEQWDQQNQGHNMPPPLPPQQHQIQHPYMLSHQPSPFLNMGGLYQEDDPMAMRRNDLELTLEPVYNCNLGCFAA

What was measured:
[1] = target: AG^IAP1 (AG with residues 74-107 replaced by residues 58-92 of AP1), yeast two-hybrid fusion (Arabidopsis thaliana) (UniProt P17839+P35631); test: two-hybrid; matrix-based Gal4 yeast two-hybrid, targets in both bait and prey vectors; 7 days at 20 °C; scored positive only with growth on all three selective media (-LWH + 1 mM 3-AT, -LWH + 5 mM 3-AT, -LWA) and in both replica
[2] = target: AGAMOUS (AG), yeast two-hybrid fusion (Arabidopsis thaliana), P17839; test: as above; conditions: remark: other sources report otherwise
[3] = target: T1, AGL80^M(1-61)-3FLAG (Arabidopsis thaliana) (UniProt Q9FJK3); test: pull-down; both constructs co-translated in wheat germ extract (double input reaction), completed with PBS (150 mM sodium phosphate pH 7.2, 150 mM NaCl), anti-Myc or anti-FLAG magnetic beads, 1 h at 4 °C, four washes, western blot with anti-c-Myc and anti-FLAG
T1 sequence: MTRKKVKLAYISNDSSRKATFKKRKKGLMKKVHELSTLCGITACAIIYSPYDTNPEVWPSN

[4] = target: T2, PHE^M(1-60)-3FLAG (Arabidopsis thaliana) (UniProt O80805); test: as above
T2 sequence: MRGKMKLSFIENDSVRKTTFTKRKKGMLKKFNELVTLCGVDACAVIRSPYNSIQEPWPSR

[5] = target: T3, AGL80^MI(1-88)-3FLAG (Arabidopsis thaliana) (UniProt Q9FJK3); test: as above
T3 sequence: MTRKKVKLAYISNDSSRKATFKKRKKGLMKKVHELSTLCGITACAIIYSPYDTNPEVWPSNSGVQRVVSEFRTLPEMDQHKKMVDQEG

[6] = target: T4, PHE^MI(1-95)-3FLAG (Arabidopsis thaliana) (UniProt O80805); test: as above
T4 sequence: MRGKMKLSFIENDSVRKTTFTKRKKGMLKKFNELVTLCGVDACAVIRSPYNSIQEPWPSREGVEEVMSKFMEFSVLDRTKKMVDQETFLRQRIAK

B1: AGL24, yeast two-hybrid fusion (protein, UniProt O82794 1-220)
chain: MAREKIRIKKIDNITARQVTFSKRRRGIFKKADELSVLCDADVALIIFSATGKLFEFSSSRMRDILGRYSLHASNINKLMDPPSTHLRLENCNLSRLSKEVEDKTKQLRKLRGEDLDGLNLEELQRLEKLLESGLSRVSEKKGECVMSQIFSLEKRGSELVDENKRLRDKLETLERAKLTTLKEALETESVTTNVSSYDSGTPLEDDSDTSLKLGLPSWE
binding [1]: binds

B3: AGL61^M(63-122)-5Myc (domain or fragment, UniProt Q4PSU4 63-122)
chain: GRQKIPMVKIKKESHRQVTFSKRRAGLFKKASELCTLCGAEIGIIVFSPAKKPFSFGHPS
binding [3]: no binding
binding [4]: no binding

Further lines, results first:

binding [2]: no binding
B2: AGL24, yeast two-hybrid fusion, O82794 1-220 (protein)
chain: B1 chain

binding [5]: binds
binding [6]: binds
B4: AGL61^MI(63-155)-5MyC (domain or fragment, UniProt Q4PSU4 63-155)
chain: GRQKIPMVKIKKESHRQVTFSKRRAGLFKKASELCTLCGAEIGIIVFSPAKKPFSFGHPSVESVLDRYVSRNNMSLAQSQQLQGSPAASCELN
